Assay results reported in PubChem BioAssay AID2147 (National Center for Advancing Translational Sciences (NCATS), 2009).
The whole screen tested about 230,000 compounds, of which about 3,600 (1.6%) were called active. This list was built around the results that the source calls inconclusive (neither active nor inactive); the mix of calls is not that of the screen. Calls come from the whole dose curve; as a rule, active = well fitted inhibition curve with a large enough effect (not every such curve was filed as active); inconclusive = small, poorly fitted or top-dose-only effect, or another doubt; inactive = no such curve, though single readings can be large or run the other way. A potency beside an inconclusive call is a rough fit, not a confirmed value.

Target: Lysine-specific demethylase 4E (Homo sapiens) (UniProt B2RXH2)
Sequence of UniProt B2RXH2 (B2RXH2 whole entry, looked up, the tested form may be a part): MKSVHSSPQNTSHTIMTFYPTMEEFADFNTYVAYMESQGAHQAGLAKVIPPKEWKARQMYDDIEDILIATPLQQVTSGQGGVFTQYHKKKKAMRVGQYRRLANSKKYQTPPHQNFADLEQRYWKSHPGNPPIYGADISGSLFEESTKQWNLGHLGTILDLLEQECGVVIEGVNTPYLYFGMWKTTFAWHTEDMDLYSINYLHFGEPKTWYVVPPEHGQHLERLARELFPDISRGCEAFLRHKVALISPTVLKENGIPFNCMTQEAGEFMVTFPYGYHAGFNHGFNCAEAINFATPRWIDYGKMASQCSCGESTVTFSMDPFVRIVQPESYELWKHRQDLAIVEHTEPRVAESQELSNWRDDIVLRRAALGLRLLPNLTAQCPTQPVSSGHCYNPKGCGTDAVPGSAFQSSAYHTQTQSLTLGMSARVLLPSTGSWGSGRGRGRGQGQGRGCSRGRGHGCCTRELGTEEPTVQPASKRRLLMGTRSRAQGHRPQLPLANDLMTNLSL
Assay: qHTS Assay for Inhibitors of Human Jumonji Domain Containing 2E (JMJD2E)
Conditions: JMJD2E catalytic domain, FDH-coupled NADH fluorescence (FDH is formaldehyde dehydrogenase); series mostly up to 57.1 µM
Note: nearly all actives have a fitted effect of over 50% in size.
Potency is the fitted concentration of half-maximal effect; tags give direction and shape of the fitted curve.

Row | Compound | Potency
1 | Oc1ccc(/C=N/NC(=S)Nc2cccnc2)c(O)c1 | active: 28.2 µM
2 | Cn1c(=O)c2c(nc(N3CCCCCC3)n2CC(O)COc2ccccc2)n(C)c1=O (stereo not drawn) | inactive
3 | CCn1c(SCC(=O)Nc2ccc(Cl)cc2)nc2nc3c(cc2c1=O)CCCC3 | inactive
4 | Cc1ccccc1CNC(=O)C(=O)Nc1nccs1 | inconclusive: 35.5 µM [inhibitor, single point]
5 | C=CCn1c(=NC(=O)c2sc3ccccc3c2Cl)sc2cc(S(N)(=O)=O)ccc21 | inconclusive: 39.8 µM [inhibitor, partial curve, poor fit]
6 | CCCCOc1ccccc1C1C(C(=O)OC)=CN(CC)C=C1C(=O)OC | inconclusive: 31.6 µM [inhibitor, partial curve]
7 | O=C(O)c1cn(-c2ccc(F)cc2)c2cc(N3CCNCC3)c(F)cc2c1=O | inconclusive: 25.1 µM [inhibitor, partial curve]
8 | Cc1ccc(Cn2nc(C)c(NC(=O)CCCn3nc([N+](=O)[O-])c(Cl)c3C)c2C)cc1 | inactive
9 | O=C(Nc1nc(-c2ccccn2)cs1)c1ccc(Br)s1 | inconclusive: 35.5 µM [inhibitor, single point]
10 | Cc1ccc(NC(=O)c2ncc(Cl)c(Cl)c2Cl)cc1C | inconclusive: 31.6 µM [inhibitor, single point]
11 | CC1CCCCC1NCC(=O)NCc1ccc(F)cc1 (stereo not drawn) | inconclusive: 28.2 µM [inhibitor, single point]
12 | O=C(c1ccco1)N1CCN(c2nc(C(F)(F)F)nc3c2nnn3Cc2ccccc2)CC1 | inconclusive: 31.6 µM [inhibitor, single point]
13 | C/C(=N\OCC(=O)NC12CC3CC(CC(C3)C1)C2)c1cc2ccccc2o1 | inactive
14 | CC1=C(C(=O)Nc2ccccc2C)C(c2ccc(C)o2)C2=C(CCCC2=O)N1 (stereo not drawn) | inconclusive: 39.8 µM [inhibitor, single point]
15 | CCOC(=O)c1nnn2c1nc(N(CC)CC)c1ccccc12 | inconclusive: 8.91 µM [inhibitor, single point]
16 | Oc1c(Cl)cc(Cl)c2c1NCCC2 | inconclusive: 11.2 µM [inhibitor, partial curve]
17 | Nc1ccc(-c2nc3ncccc3o2)c(Cl)c1 | inconclusive: 28.2 µM [inhibitor, partial curve]
18 | CC(=O)Nc1ccc(NC(=O)C(C)OC(=O)C2CCN(S(=O)(=O)c3cccs3)CC2)cc1 (stereo not drawn) | inactive
19 | COc1c(O)ccc2c1CN1CCc3cc4c(cc3C1C2)OCO4 (stereo not drawn) | inconclusive: 3.98 µM [inhibitor, partial curve]
20 | COC(=O)c1ccccc1NC1c2ccccc2C(=O)N1c1cccnc1 (stereo not drawn) | inconclusive: 35.5 µM [inhibitor, single point]
21 | CN(Cc1cc2ccccc2[nH]c1=O)S(C)(=O)=O | inconclusive: 39.8 µM [inhibitor, single point]
22 | COC(=O)c1nc2cc3c(cc2c(C)c1C(=O)OC)OCO3 | inconclusive: 7.08 µM [inhibitor, full curve]

Row | Compound | Potency
23 | CC(C)OC(=O)C(C#N)c1nc2ccccc2nc1N1CCCC1 (stereo not drawn) | inconclusive: 35.5 µM [inhibitor, partial curve]
24 | O=C(Nc1ccc(Nc2ccccc2)cc1)C(Cl)(Cl)Cl | inactive
25 | COc1ccccc1-n1c(=O)[nH]c2c(C(N)=O)nc(CC(C)C)nc21 | inconclusive: 35.5 µM [inhibitor, single point]
26 | CCNC1=C(Cl)C(=O)c2ccccc2C1=O | inactive
27 | COc1ccc(CN2C(=O)c3cccnc3C2Nc2cc(Cl)c(OC)cc2OC)cc1 (stereo not drawn) | active: 15.8 µM
28 | COc1ccccc1Nc1ncc(C(=O)N2CCN(Cc3ccc(OC)c(OC)c3OC)CC2)c2ccccc12 | inconclusive: 25.1 µM [inhibitor, single point]
29 | Cc1ccc(-c2ccc(=O)n(CCC(=O)NCc3ccccn3)n2)cc1 | inconclusive: 39.8 µM [inhibitor, single point]
30 | Cc1cc(C(C)(C)C)ccc1OCCCCN1CCCC1 | inconclusive: 28.2 µM [inhibitor, single point]
31 | CCn1c(=O)n(CC(=O)N2CC(C)CC(C)C2)c(=O)c2ccccc21 (stereo not drawn) | inconclusive: 31.6 µM [inhibitor, single point]
32 | CCn1c(SCc2ccc(C(=O)Nc3nccs3)cc2)nnc1-c1ccc(N)cc1 | inactive
33 | COC(=O)c1ccc(CSc2ccc3nnc(-c4cccc(F)c4)n3n2)o1 | inconclusive: 31.6 µM [inhibitor, single point]
34 | Clc1nc2c(-c3ccccc3)nnn2c2ccccc12 | inconclusive: 22.4 µM [inhibitor, partial curve]
35 | N#Cc1cc(-c2ccccc2)c[nH]c1=O | inconclusive: 17.8 µM [inhibitor, partial curve]
36 | C/C(=N\OC(=O)Nc1ccc(Cl)cc1)c1ncc(C(F)(F)F)cc1N1CCOCC1 | inconclusive: 35.5 µM [inhibitor, single point]
37 | CCN1C(=O)/C(=C\C=C2/C=CC=CN2CC)SC1=S | inconclusive: 1 µM [inhibitor, full curve]
38 | Cn1cc(C(=O)NCC2COc3ccccc3O2)c(=O)c2cc(S(=O)(=O)N3CCCCC3)ccc21 (stereo not drawn) | inconclusive: 39.8 µM [inhibitor, single point]
39 | CCCSc1ccc(C(=O)Nc2ccc(Cl)cc2)cn1 | inconclusive: 39.8 µM [inhibitor, single point]
40 | O=c1c2sc3ccccc3c2[nH]c(=S)n1CCN1CCOCC1 | inconclusive: 28.2 µM [inhibitor, single point]
41 | COc1cc(CN2CCNC(=O)C2CC(=O)N2CCc3ccccc3C2)cc(OC)c1 (stereo not drawn) | inconclusive: 31.6 µM [inhibitor, single point]
42 | CCN1CCCC1CNC(=O)c1cc2c(=O)n(C)c3ccccc3c2n1C (stereo not drawn) | inconclusive: 28.2 µM [inhibitor, partial curve]
43 | CC1=NN2C(=N)/C(=C\c3cc(C)n(Cc4ccccc4)c3C)C(=O)N=C2S1 | inconclusive: 39.8 µM [inhibitor, single point]
